Publication PMC12136788
The other results are listed elsewhere or left out.

T1: UNK ZnF1-3 (human, UniProt Q9C0B0 31-174)
T1 sequence: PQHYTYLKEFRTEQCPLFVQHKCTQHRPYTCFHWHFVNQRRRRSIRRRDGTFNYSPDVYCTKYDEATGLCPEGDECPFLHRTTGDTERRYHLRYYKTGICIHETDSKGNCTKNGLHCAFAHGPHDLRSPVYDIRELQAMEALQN

B1: chr1:109605286:109605287:-_ENSG00000197780_ENST00000461096|hu_mus|hu_hu_hu_mus_True|1_58 (ssRNA)
RNA: GGGAGUUCUACAGUCCGACGAUCAAGUUUCAGAGUAACAUUCAGUAACCUCUUUAAAUGCAAUUAUCCUUAUUAUAAACUAAGGGCAAUAAUAAUUUAAUACCGUAAGUGAACUACACACAAAGCCUGAACCGCGAAACUACACAACAGAGGAUUGAGCAUCA
B2: 129742970_129743738_2615_CDS_ENSG00000170322_ENST00000446488|human|control|control (ssRNA)
RNA: GGGAGUUCUACAGUCCGACGAUCGGGCACAGUGGCCAUUACUGUCUGGGGCACUACUUUGGUCUGUGUGGCAGUGGCUGGAACCCGGAUCUGCGGUCCUGCUGGCAUCUGUGGCAAUGUCUGUGCCGGCCCUCCCGACUGCUGCAACAGAGGAUUGAGCAUCA
B3: 58477262_58477382_1138_ncRNA_ENSMUSG00000026034_ENSMUST00000129577|mouse|control|control (ssRNA)
RNA: GGGAGUUCUACAGUCCGACGAUCCAAGGAACAGAUUUUCAGAUAAGAUACUCAAAGUGGUAAGUCAACAAAACAUAAACACAUUUGCUUUUCUUCUUAAAAAACAAAACAAAACUUAUCUGUGGCAUUCACUCAAACAUAGUGCAACAGAGGAUUGAGCAUCA
B4: 26880008_26881670_611_3pUTR_ENSMUSG00000037316_ENSMUST00000038498|mouse|control|control (ssRNA)
RNA: GGGAGUUCUACAGUCCGACGAUCCUGUGAAGCAGGAUAUCCUGGCACCUGUCCCCUCAGAGGAGGUGCUUCUGUUGGACAGUCCUGCUGGGAAUACAUCCAACGAGACAUUGGAGUUGGGCUGUUACCAGGUGAACGGUAGGUCAACAGAGGAUUGAGCAUCA
B5: chr2:216981417:216981418:+_ENSG00000079246_ENST00000392132|hu_hu|hu_hu_hu_mus_True|88_88 (ssRNA)
RNA: GGGAGUUCUACAGUCCGACGAUCCUGAUACUGGUCCUUGCCAGCAAGGGGAUUGUCAGUGCCAUCUGUGCCAUAGAGGACUAACGCAAUCUCAUCUUUGCUCUCCGAAAAUACCUGUCGUUGGACAAACAUAGUCAUCACUUUCAACAGAGGAUUGAGCAUCA
B6: chr8:100899844:100899845:-_ENSG00000164919_ENST00000517682|hu_mus|FALSE|FALSE (ssRNA)
RNA: GGGAGUUCUACAGUCCGACGAUCUGGCUCAGCCACGCCAAACUUAUAGGCAGCGGCAACUCCCAGGGCCACAAUGAAUGCGCCAGCAAUAUGAACCCGCAGACGCUUGGCCAGAAGACCACGCAUCUGUGGUUUGGGCAACAGCAACAGAGGAUUGAGCAUCA
B7: chr6:136509389:136509390:+_ENSMUSG00000030213_ENSMUST00000032335|mus_mus|FALSE|FALSE (ssRNA)
RNA: GGGAGUUCUACAGUCCGACGAUCGACAUUACUGUUCACUUUAUUUCCCUCAUCACAGGAGUCUUUACUUUGAAUUUGGUCUAAGUGUUCGUCGUCUUCACUCUUGCCUGGACAAUCAUCACUGUUAUUGCUACUCGGCUCUGUCAACAGAGGAUUGAGCAUCA
B8: chr3:150289932:150289933:+_ENSG00000144895_ENST00000460851|hu_hu|hu_hu_hu_mus_False|8_28 (ssRNA)
RNA: GGGAGUUCUACAGUCCGACGAUCCUUGUAGUUUUUAACAUCCCAUACUUCCAUUUGUCCUCGAAGAUUUCCAAAUCCAGCCAGCACUAAUAUAUGUCCAUGAGGGCUAUAGUAGGCUGCGUUGCGAGGACCAGUUCCAAAGUCCAACAGAGGAUUGAGCAUCA
B9: chr3:176767854:176767855:-_ENSG00000177565_ENST00000430069|hu_hu|hu_hu_hu_mus_False|18_38 (ssRNA)
RNA: GGGAGUUCUACAGUCCGACGAUCGACAUCCUUGUUACUGGGCACGUCCUGCCCUCCUUCCCGUAUGCAGUGUCUAAGCACGAGCUGCGUAGGGCCACUGGUGCUGUUCUCACUGAGAUUCCAUAUUCUUGCCGUGGAGUCUCCCAACAGAGGAUUGAGCAUCA
B10: chrX:101152592:101152593:-_ENSMUSG00000056537_ENSMUST00000070705|mus_hu|FALSE|FALSE (ssRNA)
RNA: GGGAGUUCUACAGUCCGACGAUCUAAAUCUGCAGUAUGACAUCUUACAUAGGGAAAAAAGCUUCUUCCUAAAAGAUAACUAUUAAUAAUCAAACCAGCUUUAAUAUGAUUGACCUUUCAAGGUCUUGUUUUGCUUUAAACAAGCAACAGAGGAUUGAGCAUCA
B11: chr1:202722107:202722108:-_ENSG00000117139_ENST00000367264|hu_mus|FALSE|FALSE (ssRNA)
RNA: GGGAGUUCUACAGUCCGACGAUCCAUGAUGGUCACCAGCUGGUGGAGCAGGUCCGGCUGGGACACAAAGAGCUCAGGAGCGAGCUUCUUCAUCACGUUUUCUAGCUGCUCAGCAGCGUAGCCUGGAACUCCAUACCAGGUUUUCAACAGAGGAUUGAGCAUCA
B12: 226565000_226566958_1833_CDS_ENSG00000143799_ENST00000366794|human|control|control (ssRNA)
RNA: GGGAGUUCUACAGUCCGACGAUCAUACCUGUUUUCCUUGUCGUCCUCCAGAAGCUGCAGCUUGUAGUAGGAGUUGGUUCCUUUAACGAUGUCCACCAGGCCAAGGGUGGCACUGAAGACCUUCCCACCUUUCUCCAGGACAUGCAACAGAGGAUUGAGCAUCA
B13: chr4:135514694:135514695:+_ENSMUSG00000028672_ENSMUST00000030432|mus_mus|FALSE|FALSE (ssRNA)
RNA: GGGAGUUCUACAGUCCGACGAUCGUCCCCAAGGGAGAUCUCAUAGCAGCCCAUCGAGUACAACUUCUUGGCAACCUCAGCAACUUUAGCCGGGGAGACCUUCCCCUCGUAGGGGCAUCCGAGGGCACAGGAGACAUACCCUCUCAACAGAGGAUUGAGCAUCA
B14: 156762238_156762358_2499_CDS_ENSG00000146909_ENST00000275820|human|control|control (ssRNA)
RNA: GGGAGUUCUACAGUCCGACGAUCUGCAAGGUCAGCUUUCUCUCUCAGCACGUUGGCUUCGUCGGCGCUUCUGUGGGCCUGUGCGUUCUUUAGCAAGAAGUGGCUGAUGAAAAGCUUCAAACCCUCACGUAACACCCCCAGCUUCAACAGAGGAUUGAGCAUCA

Each binder was assayed against T1, UNK ZnF1-3 (assay: nsRBNS (natural sequence RNA bind-n-seq); RBNS binding buffer (assumed for nsRBNS): 25 mM Tris pH 7.5, 150 mM KCl, 3 mM MgCl2, 0.01% Triton X-100, 500 ug/ml BSA, 20 U/ml SUPERase-In, 4 C; UNK is unkempt and MSI1 is Musashi-1; names of the RNAs are library labels; protein concentration not given here; high values mean tight binding).

Binder | binding signal [enrichment R]
B1 | 0.706
B2 | 0.934
B3 | 0.941
B4 | 0.593
B5 | 1.15
B6 | 0.899
B7 | 0.352
B8 | 0.68
B9 | 0.475
B10 | 0.781
B11 | 0.549
B12 | 0.744
B13 | 0.793
B14 | 0.781
